One assay has as its target T1, His-Flag-RPRD1A (UniProt Q96P16).
T1 sequence: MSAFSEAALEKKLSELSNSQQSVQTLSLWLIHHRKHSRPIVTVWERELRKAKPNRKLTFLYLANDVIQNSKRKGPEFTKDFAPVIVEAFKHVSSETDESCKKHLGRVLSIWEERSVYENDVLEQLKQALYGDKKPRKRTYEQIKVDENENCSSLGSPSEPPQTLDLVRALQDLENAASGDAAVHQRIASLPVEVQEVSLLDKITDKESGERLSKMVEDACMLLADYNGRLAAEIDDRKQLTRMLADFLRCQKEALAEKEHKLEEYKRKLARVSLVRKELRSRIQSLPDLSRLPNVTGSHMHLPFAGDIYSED
The experiment in a line: co-IP; His-Flag-RPRD1A or His-Flag-p62 expressed with HA-tagged TRIM21 full-length or truncation mutants in HEK293T cells for 48 h; lysates precipitated with His-tag antibody.

Amino acid sequences for entries named in this document (tags omitted). A change or cut given only in a name is not applied to a line headed by its entry. Chains listed by the source or under a name are the forms on record and can include a tag or linker.
UniProt P19474: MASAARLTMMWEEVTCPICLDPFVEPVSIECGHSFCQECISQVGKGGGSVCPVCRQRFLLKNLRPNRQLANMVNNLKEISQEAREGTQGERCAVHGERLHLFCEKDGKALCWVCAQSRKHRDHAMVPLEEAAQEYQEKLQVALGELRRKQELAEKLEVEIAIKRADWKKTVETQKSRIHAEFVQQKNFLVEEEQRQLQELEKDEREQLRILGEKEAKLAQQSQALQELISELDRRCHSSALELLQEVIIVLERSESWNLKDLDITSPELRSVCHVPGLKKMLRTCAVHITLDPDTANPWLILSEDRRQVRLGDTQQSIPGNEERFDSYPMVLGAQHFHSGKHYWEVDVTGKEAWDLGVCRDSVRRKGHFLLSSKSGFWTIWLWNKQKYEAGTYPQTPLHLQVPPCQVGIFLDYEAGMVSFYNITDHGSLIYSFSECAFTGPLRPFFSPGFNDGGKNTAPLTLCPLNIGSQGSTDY
HA-TRIM21Δ287-334 (P19474, form named): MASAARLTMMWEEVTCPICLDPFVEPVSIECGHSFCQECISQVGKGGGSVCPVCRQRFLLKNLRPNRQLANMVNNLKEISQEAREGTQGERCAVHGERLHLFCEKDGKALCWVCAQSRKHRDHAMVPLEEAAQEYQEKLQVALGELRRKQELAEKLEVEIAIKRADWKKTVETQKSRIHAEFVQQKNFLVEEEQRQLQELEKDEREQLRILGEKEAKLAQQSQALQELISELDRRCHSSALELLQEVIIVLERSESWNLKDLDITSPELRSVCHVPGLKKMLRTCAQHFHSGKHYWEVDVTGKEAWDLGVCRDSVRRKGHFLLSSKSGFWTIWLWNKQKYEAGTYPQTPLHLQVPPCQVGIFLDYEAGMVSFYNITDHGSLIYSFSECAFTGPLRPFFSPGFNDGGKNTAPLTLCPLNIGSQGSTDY

The target in assay [1] is T2, p15INK4b-related sequence/regulation of nuclear pre-mRNA domain-containing protein 1A (RPRD1A) (human (endogenous in MHCCLM3)) (UniProt Q96P16).
T2 sequence: T1 sequence
As to the kind of experiment: co-IP; endogenous proteins in MHCCLM3 lysates (RIPA buffer); 2 ug antibody (RPRD1A, TRIM21 or p62) for 8 h at 4 C, protein A/G Plus-Agarose for 4 h, western blotting; TRIM21 with p62 also under RPRD1A knockdown or overexpression (Fig. 5F, G). A general note: Immunoblotting shows a protein as a band on a membrane.

No constants are given. Whether binding was seen depends on the method and setting. Binding seen in cells or lysates may run through a third protein. Some entries that bind do so weakly or less than the wild type. For some assays here: Tags and fused reporters may be left off the sequences shown.

The values that follow come from article PMC8683478.

“HA-TRIM21Δ334-476 (from UniProt P19474 1-333) (domain or fragment)”: in the assay with His-Flag-RPRD1A, the binding entry is “binds”. As to “HA-tagged TRIM21 full-length (from UniProt P19474 1-475)”, in the assay with His-Flag-RPRD1A, the binding result was “binds”. With TRIM21 (from UniProt P19474 1-475), the binding entry in assay [1] is recorded as “binds”. For the substance “HA-TRIM21Δ252-476 (from UniProt P19474 1-251) (domain or fragment)”, in the assay with His-Flag-RPRD1A, the binding result is reported as “no binding”. Consider “HA-TRIM21Δ287-334 (from UniProt P19474 1-475) (domain or fragment)”, for which the binding entry in the assay with His-Flag-RPRD1A was “binds”.
